# From the supplement of paper PMC12217912
# The other results are listed elsewhere or left out. The full chains were built here from the parent and the listed change. Values near 0.05 are background.
# B1: TEV protease; numbered along this chain (parent)
# chain: MGESLFKGPRDYNPISSSICHLTNESDGHTTSLYGIGFGPFIITNKHLFRRNNGTLVVQSLHGVFKVKDTTTLQQHLVDGRDMIIIRMPKDFPPFPQKLKFREPQREERICLVTTNFQTKSMSSMVSDTSCTFPSGDGIFWKHWIQTKDGQCGSPLVSTRDGFIVGIHSASNFTNTNNYFTSVPKNFMELLTNQEAQQWVSGWRLNADSVLWGGHKVFMVKPEEPFQPVKEATQL
# Variants of: B1
# Assay: raw area under fraction-flipped curve 0-4 h after induction (AUC4h, not background-subtracted), DNA-recorder readout of cleavage of the substrate (dimensionless); higher = more cleavage of the substrate by the protease variant
# Conditions: temperature: 34 °C; time window: 0-4 h after rhamnose induction
# Method: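 In vivo DNA recorder in E. coli TOP10(DE3) ΔrhaA at 34 °C. Each TEVp single-site mutant (parent TEVp 0) is paired with a single-site variant of the 7-mer TEVs (canonical ENLYFQ|S). The substrate sits between flexible linkers in a Bxb1-sfGFP-TEVs-SsrA fusion, so cleavage stabilises Bxb1 and speeds flipping of a recombination array, read by NGS. The value is the raw area under the fraction-flipped curve over 0-4 h after rhamnose induction (AUC4h), with ≥20 reads per time point. It is not background-subtracted; inactive controls average about 0.047.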
# 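Also: Bxb1 expression induced with 0.2% (w/v) L-rhamnose at OD600 near 0.5, cultures sampled hourly, flipped fraction per protease–substrate barcode pair counted by paired-end Illumina sequencing.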
Variant,area with substrate ENAYFQS,area with substrate ENDYFQS,area with substrate ENEYFQS,area with substrate ENFYFQS,area with substrate ENGYFQS,area with substrate ENHYFQS,area with substrate ENIYFQS,area with substrate ENMYFQS,area with substrate ENNYFQS,area with substrate ENPYFQS,area with substrate ENQYFQS,area with substrate ENRYFQS,area with substrate ENSYFQS,area with substrate ENTYFQS,area with substrate ENVYFQS,area with substrate ENWYFQS,area with substrate ENCYFQS,area with substrate ENKYFQS,area with substrate ENYYFQS
MGESLFKGPRDYNPISSSICHLTNESDGHTTSLYGIGFGPFIITNKHLFRRNNGTLVVQSLHGVFKVKDTTTLQQHLVDGRDMIIQRMPKDFPPFPQKLKFREPQREERICLVTTNFQTKSMSSMVSDTSCTFPSGDGIFWKHWIQTKDGQCGSPLVSTRDGFIVGIHSASNFTNTNNYFTSVPKNFMELLTNQEAQQWVSGWRLNADSVLWGGHKVFMVKPEEPFQPVKEATQL [I86Q],0.0456,0.034,0.0456,0.0355,0.0384,0.047,0.0437,0.0358,0.0508,0.0365,0.044,0.042,0.0443,0.0385,0.0385,0.0339,,,
MGESLFKGPRDYNPISSSICHLTNESDGHTTSLYGIGFGPFIITNKHLFRRNNGTLVVQSLHGVFKVKDTTTLQQHLVDGRDMIIIRAPKDFPPFPQKLKFREPQREERICLVTTNFQTKSMSSMVSDTSCTFPSGDGIFWKHWIQTKDGQCGSPLVSTRDGFIVGIHSASNFTNTNNYFTSVPKNFMELLTNQEAQQWVSGWRLNADSVLWGGHKVFMVKPEEPFQPVKEATQL [M88A],0.0528,0.0648,0.0552,0.0638,0.0478,0.0623,,0.0824,,,,,0.056,0.057,0.0789,,0.0696,,
MGESLFKGPRDYNPISSSICHLTNESDGHTTSLYGIGFGPFIITNKHLFRRNNGTLVVQSLHGVFKVKDTTTLQQHLVDGRDMIIIRMNKDFPPFPQKLKFREPQREERICLVTTNFQTKSMSSMVSDTSCTFPSGDGIFWKHWIQTKDGQCGSPLVSTRDGFIVGIHSASNFTNTNNYFTSVPKNFMELLTNQEAQQWVSGWRLNADSVLWGGHKVFMVKPEEPFQPVKEATQL [P89N],0.0476,0.059,0.0783,,0.0521,0.0387,0.1,0.0697,,0.0615,0.0672,0.0594,0.0619,0.0662,0.0582,,0.0533,0.0501,0.0593
MGESLFKGPRDYNPISSSICHLTNESDGHTTSLYGIGFGPFIITNKHLFRRNNGTLVVQSLHGVFKVKDTTTLQQHLVDGRDMIIIRMPWDFPPFPQKLKFREPQREERICLVTTNFQTKSMSSMVSDTSCTFPSGDGIFWKHWIQTKDGQCGSPLVSTRDGFIVGIHSASNFTNTNNYFTSVPKNFMELLTNQEAQQWVSGWRLNADSVLWGGHKVFMVKPEEPFQPVKEATQL [K90W],0.0513,,0.0597,0.0402,0.0725,0.0678,0.143,,0.0645,,0.0545,,0.0625,0.0566,0.0847,0.039,0.0745,0.0697,0.057
MGESLFKGPRDYNPISSSICHLTNESDGHTTSLYGIGFGPFIITNKHLFRRNNGTLVVQSLHGVFKVKDTTTLQQHLVDGRDMIIIRMPKDCPPFPQKLKFREPQREERICLVTTNFQTKSMSSMVSDTSCTFPSGDGIFWKHWIQTKDGQCGSPLVSTRDGFIVGIHSASNFTNTNNYFTSVPKNFMELLTNQEAQQWVSGWRLNADSVLWGGHKVFMVKPEEPFQPVKEATQL [F92C],0.063,,0.0651,0.0651,0.0622,0.0319,0.101,0.0883,0.0736,0.0795,0.0622,0.0639,0.0566,0.0693,0.0796,,0.0609,0.0581,
MGESLFKGPRDYNPISSSICHLTNESDGHTTSLYGIGFGPFIITNKHLFRRNNGTLVVQSLHGVFKVKDTTTLQQHLVDGRDMIIIRMPKDFPPFPQALKFREPQREERICLVTTNFQTKSMSSMVSDTSCTFPSGDGIFWKHWIQTKDGQCGSPLVSTRDGFIVGIHSASNFTNTNNYFTSVPKNFMELLTNQEAQQWVSGWRLNADSVLWGGHKVFMVKPEEPFQPVKEATQL [K98A],0.0527,0.0582,0.0711,,0.0561,,0.125,,0.0566,0.0714,0.0594,,0.0629,,0.0631,,0.0691,0.102,
MGESLFKGPRDYNPISSSICHLTNESDGHTTSLYGIGFGPFIITNKHLFRRNNGTLVVQSLHGVFKVKDTTTLQQHLVDGRDMIIIRMPKDFPPFPQCLKFREPQREERICLVTTNFQTKSMSSMVSDTSCTFPSGDGIFWKHWIQTKDGQCGSPLVSTRDGFIVGIHSASNFTNTNNYFTSVPKNFMELLTNQEAQQWVSGWRLNADSVLWGGHKVFMVKPEEPFQPVKEATQL [K98C],0.0687,0.0669,0.0624,,0.0661,0.0625,0.0937,0.0842,0.0648,0.064,0.0583,0.0621,0.0666,0.0998,0.0782,0.0606,0.0686,0.0639,0.0597
MGESLFKGPRDYNPISSSICHLTNESDGHTTSLYGIGFGPFIITNKHLFRRNNGTLVVQSLHGVFKVKDTTTLQQHLVDGRDMIIIRMPKDFPPFPQLLKFREPQREERICLVTTNFQTKSMSSMVSDTSCTFPSGDGIFWKHWIQTKDGQCGSPLVSTRDGFIVGIHSASNFTNTNNYFTSVPKNFMELLTNQEAQQWVSGWRLNADSVLWGGHKVFMVKPEEPFQPVKEATQL [K98L],0.067,0.0876,0.0592,0.0596,0.0653,,,0.0877,0.0664,0.0627,0.0659,0.0609,0.0664,0.0677,0.0609,,0.0639,,0.0711
MGESLFKGPRDYNPISSSICHLTNESDGHTTSLYGIGFGPFIITNKHLFRRNNGTLVVQSLHGVFKVKDTTTLQQHLVDGRDMIIIRMPKDFPPFPQKDKFREPQREERICLVTTNFQTKSMSSMVSDTSCTFPSGDGIFWKHWIQTKDGQCGSPLVSTRDGFIVGIHSASNFTNTNNYFTSVPKNFMELLTNQEAQQWVSGWRLNADSVLWGGHKVFMVKPEEPFQPVKEATQL [L99D],0.0461,,0.0546,0.0658,,0.0569,0.0502,0.0656,0.0554,0.0663,0.0574,,,,0.0746,,,0.0514,0.0482
MGESLFKGPRDYNPISSSICHLTNESDGHTTSLYGIGFGPFIITNKHLFRRNNGTLVVQSLHGVFKVKDTTTLQQHLVDGRDMIIIRMPKDFPPFPQKLKFHEPQREERICLVTTNFQTKSMSSMVSDTSCTFPSGDGIFWKHWIQTKDGQCGSPLVSTRDGFIVGIHSASNFTNTNNYFTSVPKNFMELLTNQEAQQWVSGWRLNADSVLWGGHKVFMVKPEEPFQPVKEATQL [R102H],0.0387,0.0434,0.056,0.0459,0.0196,0.0544,0.054,0.0458,0.0529,0.047,0.0483,0.0503,0.0557,,0.0477,0.0643,0.0575,0.0629,0.0516
MGESLFKGPRDYNPISSSICHLTNESDGHTTSLYGIGFGPFIITNKHLFRRNNGTLVVQSLHGVFKVKDTTTLQQHLVDGRDMIIIRMPKDFPPFPQKLKFREGQREERICLVTTNFQTKSMSSMVSDTSCTFPSGDGIFWKHWIQTKDGQCGSPLVSTRDGFIVGIHSASNFTNTNNYFTSVPKNFMELLTNQEAQQWVSGWRLNADSVLWGGHKVFMVKPEEPFQPVKEATQL [P104G],0.0463,0.0427,0.0456,0.0558,0.0634,0.0562,,0.0497,0.0395,0.0481,,0.0517,0.0516,0.0438,0.0514,0.0417,0.0543,0.0607,0.0738
MGESLFKGPRDYNPISSSICHLTNESDGHTTSLYGIGFGPFIITNKHLFRRNNGTLVVQSLHGVFKVKDTTTLQQHLVDGRDMIIIRMPKDFPPFPQKLKFREPDREERICLVTTNFQTKSMSSMVSDTSCTFPSGDGIFWKHWIQTKDGQCGSPLVSTRDGFIVGIHSASNFTNTNNYFTSVPKNFMELLTNQEAQQWVSGWRLNADSVLWGGHKVFMVKPEEPFQPVKEATQL [Q105D],0.0663,0.0635,0.0608,0.0525,0.0557,0.071,0.112,,0.0551,0.0491,0.0574,0.0736,0.0653,0.0652,0.0687,,0.0669,0.0603,0.064
MGESLFKGPRDYNPISSSICHLTNESDGHTTSLYGIGFGPFIITNKHLFRRNNGTLVVQSLHGVFKVKDTTTLQQHLVDGRDMIIIRMPKDFPPFPQKLKFREPRREERICLVTTNFQTKSMSSMVSDTSCTFPSGDGIFWKHWIQTKDGQCGSPLVSTRDGFIVGIHSASNFTNTNNYFTSVPKNFMELLTNQEAQQWVSGWRLNADSVLWGGHKVFMVKPEEPFQPVKEATQL [Q105R],0.0552,0.0572,0.056,0.0674,0.0719,0.0558,0.106,0.0625,0.0714,0.0586,0.0676,0.0491,0.0617,,0.0749,0.0481,0.0578,0.0605,0.0596
MGESLFKGPRDYNPISSSICHLTNESDGHTTSLYGIGFGPFIITNKHLFRRNNGTLVVQSLHGVFKVKDTTTLQQHLVDGRDMIIIRMPKDFPPFPQKLKFREPQRYERICLVTTNFQTKSMSSMVSDTSCTFPSGDGIFWKHWIQTKDGQCGSPLVSTRDGFIVGIHSASNFTNTNNYFTSVPKNFMELLTNQEAQQWVSGWRLNADSVLWGGHKVFMVKPEEPFQPVKEATQL [E107Y],0.0596,0.0602,,,,0.0642,,,,,0.0532,,0.0563,0.0578,,,0.0629,0.0621,
MGESLFKGPRDYNPISSSICHLTNESDGHTTSLYGIGFGPFIITNKHLFRRNNGTLVVQSLHGVFKVKDTTTLQQHLVDGRDMIIIRMPKDFPPFPQKLKFREPQREARICLVTTNFQTKSMSSMVSDTSCTFPSGDGIFWKHWIQTKDGQCGSPLVSTRDGFIVGIHSASNFTNTNNYFTSVPKNFMELLTNQEAQQWVSGWRLNADSVLWGGHKVFMVKPEEPFQPVKEATQL [E108A],0.0495,0.054,0.054,0.0604,0.0459,0.0675,0.066,,,,0.0536,0.0582,0.0589,0.0552,0.0658,,0.104,0.0601,0.0553
MGESLFKGPRDYNPISSSICHLTNESDGHTTSLYGIGFGPFIITNKHLFRRNNGTLVVQSLHGVFKVKDTTTLQQHLVDGRDMIIIRMPKDFPPFPQKLKFREPQREEGICLVTTNFQTKSMSSMVSDTSCTFPSGDGIFWKHWIQTKDGQCGSPLVSTRDGFIVGIHSASNFTNTNNYFTSVPKNFMELLTNQEAQQWVSGWRLNADSVLWGGHKVFMVKPEEPFQPVKEATQL [R109G],0.0614,0.0594,0.0734,0.0616,0.0657,0.0501,0.0971,0.0805,0.0797,0.0586,0.0699,,0.0775,0.0591,0.0731,0.0513,0.0736,0.0514,
MGESLFKGPRDYNPISSSICHLTNESDGHTTSLYGIGFGPFIITNKHLFRRNNGTLVVQSLHGVFKVKDTTTLQQHLVDGRDMIIIRMPKDFPPFPQKLKFREPQREEIICLVTTNFQTKSMSSMVSDTSCTFPSGDGIFWKHWIQTKDGQCGSPLVSTRDGFIVGIHSASNFTNTNNYFTSVPKNFMELLTNQEAQQWVSGWRLNADSVLWGGHKVFMVKPEEPFQPVKEATQL [R109I],0.0635,0.0693,0.066,0.0546,0.0356,0.0745,0.0842,0.0699,0.0665,0.0627,0.0557,0.0549,0.0594,0.0553,0.0764,0.0076,0.0604,,0.0597
